According to PMC4336329 (PLoS ONE, 2015):
Out of some 310,000 compounds screened, about 2,200 (0.71%) showed an effect of 50% or more. Effects have a minus sign here. The list shows a part of the results.

What follows are compounds tested against human ether-à-go-go-related gene (hERG) potassium channel (human, UniProt Q12809) (assay: primary screen, population patch clamp on CHO cells stably expressing hERG).
human ether-à-go-go-related gene (hERG) potassium channel, sequence (Q12809 whole entry, looked up): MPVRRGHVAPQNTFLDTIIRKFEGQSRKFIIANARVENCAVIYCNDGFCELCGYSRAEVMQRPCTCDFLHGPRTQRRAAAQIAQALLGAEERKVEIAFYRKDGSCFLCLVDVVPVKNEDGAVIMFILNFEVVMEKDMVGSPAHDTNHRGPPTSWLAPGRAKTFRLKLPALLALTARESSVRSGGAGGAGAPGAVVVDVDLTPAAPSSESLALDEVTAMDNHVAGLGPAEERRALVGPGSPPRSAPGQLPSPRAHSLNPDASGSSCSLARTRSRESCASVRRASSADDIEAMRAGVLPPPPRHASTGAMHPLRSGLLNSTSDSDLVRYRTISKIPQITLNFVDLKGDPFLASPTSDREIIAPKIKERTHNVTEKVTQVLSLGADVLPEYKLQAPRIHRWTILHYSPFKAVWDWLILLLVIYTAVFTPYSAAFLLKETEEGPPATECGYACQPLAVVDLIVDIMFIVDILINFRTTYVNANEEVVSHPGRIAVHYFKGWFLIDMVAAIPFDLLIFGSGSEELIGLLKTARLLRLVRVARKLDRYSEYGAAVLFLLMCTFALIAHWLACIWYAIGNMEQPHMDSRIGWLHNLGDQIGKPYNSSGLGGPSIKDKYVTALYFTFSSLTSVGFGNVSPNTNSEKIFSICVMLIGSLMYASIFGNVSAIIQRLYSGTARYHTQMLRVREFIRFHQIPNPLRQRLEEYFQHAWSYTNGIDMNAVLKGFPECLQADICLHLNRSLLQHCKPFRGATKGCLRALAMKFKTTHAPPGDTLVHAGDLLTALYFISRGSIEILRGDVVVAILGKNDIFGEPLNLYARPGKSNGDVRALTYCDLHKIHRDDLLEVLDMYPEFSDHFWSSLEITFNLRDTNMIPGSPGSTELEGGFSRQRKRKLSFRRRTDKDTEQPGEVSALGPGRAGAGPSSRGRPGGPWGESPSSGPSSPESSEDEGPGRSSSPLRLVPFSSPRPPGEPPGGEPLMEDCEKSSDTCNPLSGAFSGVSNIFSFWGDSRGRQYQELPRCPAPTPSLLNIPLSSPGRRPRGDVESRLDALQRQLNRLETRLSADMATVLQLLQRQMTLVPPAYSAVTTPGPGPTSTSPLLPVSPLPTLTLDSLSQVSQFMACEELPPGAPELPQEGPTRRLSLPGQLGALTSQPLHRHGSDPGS

Q: Cc1ccc(OCC(=O)N(C)CC(=O)Nc2ccc(Cl)c(C(F)(F)F)c2)c([N+](=O)[O-])n1 was tested. Which “hERG current change (%, negative = inhibition) at 1uM” value did it give?
A: Its value is -3.3%.

Q: How did the “hERG current change (%, negative = inhibition) at 1uM” value turn out when COc1ccc(O)c(C(=O)c2cnn(C(=O)c3cc(C)oc3C)c2)c1 was run?
A: Its value is 11.1%.

Q: For Cc1ccc(S(=O)(=O)NNc2ccccc2)c(C)c1, which “hERG current change (%, negative = inhibition) at 1uM” value is on record?
A: Its value is 8.32%.

Q: How did the “hERG current change (%, negative = inhibition) at 1uM” value turn out when COc1ccccc1N1CCN(CC(O)COc2ccc3c(c2)OCO3)CC1.Cl (stereo not shown) was run?
A: Its value is 6.33%.

Q: With CCOC(=O)C1CCN(c2c(N3CCCC(C(=O)OCC)C3)c(=O)c2=O)CC1 (stereo not shown) as the compound, how does the “hERG current change (%, negative = inhibition) at 1uM” value read?
A: The value was 8.36%.

Q: How did the “hERG current change (%, negative = inhibition) at 1uM” value turn out when Cc1cc(C)c(C)c(OCCN2CC(C)OC(C)C2)c1.O=C(O)C(=O)O (stereo not shown) was run?
A: The value was 8.8%.

Q: For COC(=O)c1ccc(NC(=O)c2cccc(Cl)c2)o1, which “hERG current change (%, negative = inhibition) at 1uM” value is on record?
A: The value was -2.38%.

Q: With COC(=O)C1=C(c2c(C)noc2C)C[C@@H]2CC[C@H]1N2C(=O)N1CCC(O)CC1 as the compound, how does the “hERG current change (%, negative = inhibition) at 1uM” value read?
A: The value was 11.6%.

Q: For COc1cc(OC)c(NC(=O)CNC(=O)Cn2ccc3ccccc3c2=O)cc1Cl, which “hERG current change (%, negative = inhibition) at 1uM” value is on record?
A: Its value is 10.4%.

Q: O=c1cc[nH]c2cccc(Cc3ccccc3)c12 was tested. Which “hERG current change (%, negative = inhibition) at 1uM” value did it give?
A: The value was 0.868%.

Q: For Cc1noc(C)c1S(=O)(=O)N1CCC(Cc2ccccc2)CC1, which “hERG current change (%, negative = inhibition) at 1uM” value is on record?
A: The value was 7.79%.

Q: With COCCNCC(=O)Nc1ccc(C)c(S(=O)(=O)N2CCCCC2)c1.O=C(O)C(=O)O as the compound, how does the “hERG current change (%, negative = inhibition) at 1uM” value read?
A: The value was 8.21%.

Q: Which “hERG current change (%, negative = inhibition) at 1uM” value does the source give for c1ccc(CCn2c(SCc3ccccc3)nnc2-c2ccncc2)cc1 here?
A: Its value is -12.4%.

Q: COc1cc(-c2[nH]ncc2CN2CCCC2c2nonc2C)cc(OC)c1OC (stereo not shown) was tested. Which “hERG current change (%, negative = inhibition) at 1uM” value did it give?
A: The value was 4.6%.

Q: Which “hERG current change (%, negative = inhibition) at 1uM” value does the source give for CC(=O)Nc1ccc(NC(=O)CN2C(=O)COc3ccc(S(=O)(=O)N4CCOCC4)cc32)cc1 here?
A: The value was 17.9%.

Q: Which “hERG current change (%, negative = inhibition) at 1uM” value does the source give for CC(C)CCn1nnnc1C(c1ccc(F)cc1)N1CCC(C(N)=O)CC1 (stereo not shown) here?
A: Its value is 8.02%.

Q: For Cc1cc(=O)oc2cc(OCC(=O)Nc3ccc(S(=O)(=O)N(C)C)cc3)ccc12, which “hERG current change (%, negative = inhibition) at 1uM” value is on record?
A: The value was 6.35%.

Q: Which “hERG current change (%, negative = inhibition) at 1uM” value does the source give for COCCNC(=O)C1c2ccccc2C(=O)N(CCOC)C1c1ccc(F)cc1 (stereo not shown) here?
A: The value was 8.19%.

Q: How did the “hERG current change (%, negative = inhibition) at 1uM” value turn out when C1=C(c2ccccc2)Nc2ncnn2C1c1ccccc1 (stereo not shown) was run?
A: Its value is 4.08%.

Q: Which “hERG current change (%, negative = inhibition) at 1uM” value does the source give for CCN1CCCC(OC(=O)C(c2ccccc2)c2ccccc2)C1.Cl (stereo not shown) here?
A: The value was -53%.

Q: How did the “hERG current change (%, negative = inhibition) at 1uM” value turn out when CCOc1ccccc1N1CC(C(=O)Nc2cc(S(C)(=O)=O)ccc2Cl)CC1=O (stereo not shown) was run?
A: Its value is 10.8%.

Q: For COc1ccc(Nc2nc(NCCO)nc(N3CCCC3)n2)cc1, which “hERG current change (%, negative = inhibition) at 1uM” value is on record?
A: The value was -14.5%.

Q: How did the “hERG current change (%, negative = inhibition) at 1uM” value turn out when Cl.OCCN(CCO)CC(O)Cn1c2ccccc2c2ccccc21 (stereo not shown) was run?
A: Its value is -4.59%.

Q: How did the “hERG current change (%, negative = inhibition) at 1uM” value turn out when COc1ccc(C)cc1NC(=O)CN1CCN(S(=O)(=O)c2ccc(Cl)cc2)CC1 was run?
A: The value was 5.63%.

Q: Which “hERG current change (%, negative = inhibition) at 1uM” value does the source give for O=C(NCC(=O)N1CCN(C(=O)c2ccco2)CC1)c1ccc(Cl)cc1 here?
A: Its value is -11.4%.

Q: How did the “hERG current change (%, negative = inhibition) at 1uM” value turn out when COc1ccc2oc(-c3ccco3)cc(=O)c2c1 was run?
A: Its value is 3.46%.

Q: How did the “hERG current change (%, negative = inhibition) at 1uM” value turn out when Cc1cc(C(=O)N/N=C/C=C/c2ccccc2)n[nH]1 was run?
A: Its value is 11.6%.

Q: Which “hERG current change (%, negative = inhibition) at 1uM” value does the source give for CN(C(=O)COC(=O)C12CC3CC(CC(Cl)(C3)C1)C2)C1(C#N)CCCCC1 here?
A: The value was 3.78%.

Q: With N#C/C(=C1/CCCCCN1)c1nc2ccccc2s1 as the compound, how does the “hERG current change (%, negative = inhibition) at 1uM” value read?
A: The value was 6.3%.

Q: For CC1(C)CC(=O)C(C(c2cccc([N+](=O)[O-])c2)C2C(=O)CC(C)(C)CC2=O)C(=O)C1, which “hERG current change (%, negative = inhibition) at 1uM” value is on record?
A: The value was 10.7%.

Q: Which “hERG current change (%, negative = inhibition) at 1uM” value does the source give for CCOc1ccc(CCNC(=O)c2cccc(NC3=NC4CS(=O)(=O)CC4S3)c2)cc1OCC (stereo not shown) here?
A: The value was 11.8%.

Q: COc1ccc(N2C(=O)CS/C2=N\C(=S)Nc2ccccc2)cc1 was tested. Which “hERG current change (%, negative = inhibition) at 1uM” value did it give?
A: The value was 9.99%.

Q: Which “hERG current change (%, negative = inhibition) at 1uM” value does the source give for COC(=O)CC1C(=O)NCCN1C(=O)c1c(F)cccc1F (stereo not shown) here?
A: The value was 9.55%.

Q: For COc1cc(NC(=O)CCCN2C(=O)NC(C)(C)C2=O)cc(OC)c1, which “hERG current change (%, negative = inhibition) at 1uM” value is on record?
A: The value was 10.5%.

Q: O=C(CSc1ncccn1)NCC1CCCO1 (stereo not shown) was tested. Which “hERG current change (%, negative = inhibition) at 1uM” value did it give?
A: Its value is 5.82%.

Q: For COc1ccccc1N(C)S(=O)(=O)c1ccc(C(=O)OC(C)C(=O)NCc2ccc3c(c2)OCO3)cc1 (stereo not shown), which “hERG current change (%, negative = inhibition) at 1uM” value is on record?
A: Its value is 13.3%.

Q: Which “hERG current change (%, negative = inhibition) at 1uM” value does the source give for CN1CCN(C(=O)c2cn(-c3ccccc3)nc2-c2cccnc2)CC1 here?
A: Its value is 2.28%.

Q: For O=C1/C(=C/c2ccccc2F)SC(=S)N1CCC(=O)N1CCCCC1CCO (stereo not shown), which “hERG current change (%, negative = inhibition) at 1uM” value is on record?
A: Its value is 11.5%.

Q: NC(=O)C1CCN(CC(=O)N2N=CCC2c2ccccc2)CC1 (stereo not shown) was tested. Which “hERG current change (%, negative = inhibition) at 1uM” value did it give?
A: Its value is -2.73%.

Q: O=C1Nc2c(c(=O)[nH]c(=O)n2Cc2ccccc2)C1(NS(=O)(=O)c1ccccc1)C(F)(F)F (stereo not shown) was tested. Which “hERG current change (%, negative = inhibition) at 1uM” value did it give?
A: Its value is 14.5%.

Q: How did the “hERG current change (%, negative = inhibition) at 1uM” value turn out when Cc1ccc2nc(NC(=O)CSc3nncc(=O)n3N)sc2c1 was run?
A: Its value is 6.18%.

Q: For Cc1cccc(-n2c(C)cc(/C=N/NC(=O)c3ccc(CN4CCOCC4)cc3)c2C)c1, which “hERG current change (%, negative = inhibition) at 1uM” value is on record?
A: The value was 1.39%.

Q: How did the “hERG current change (%, negative = inhibition) at 1uM” value turn out when COc1cc(OC)cc(C(=O)Nc2nnc(SCC(=O)NCC3CCCO3)s2)c1 (stereo not shown) was run?
A: The value was 10.4%.

Q: Which “hERG current change (%, negative = inhibition) at 1uM” value does the source give for CN1CCN(C(=O)N2CCNC2=O)CC1.Cl here?
A: Its value is 5.77%.

Q: For Cc1ccc(-c2nnc(Nc3ccc(C(N)=O)cc3)c3ccccc23)cc1S(=O)(=O)NCC1CCCO1 (stereo not shown), which “hERG current change (%, negative = inhibition) at 1uM” value is on record?
A: Its value is 0.193%.

Q: How did the “hERG current change (%, negative = inhibition) at 1uM” value turn out when O=C(O)c1ccccc1NC(=S)NC(NC(=O)c1ccccc1[N+](=O)[O-])C(Cl)(Cl)Cl (stereo not shown) was run?
A: The value was 5.13%.

Q: How did the “hERG current change (%, negative = inhibition) at 1uM” value turn out when O=C(CCn1nc(-c2ccccc2)ccc1=O)N1CCOCC1 was run?
A: Its value is -0.0478%.

Q: Which “hERG current change (%, negative = inhibition) at 1uM” value does the source give for CCCN1CNc2c(c(=O)[nH]c(=S)n2-c2ccccc2Cl)C1 here?
A: Its value is 0.574%.

Q: How did the “hERG current change (%, negative = inhibition) at 1uM” value turn out when N#Cc1c(C#N)c(-c2ccccc2)n(-c2ccccc2)c1N was run?
A: Its value is 3.94%.

Q: Which “hERG current change (%, negative = inhibition) at 1uM” value does the source give for Cn1c(N)c(N2CCCCC2)c(=O)n(CC(=O)Nc2ccc(Cl)c(Cl)c2)c1=O here?
A: Its value is 1.87%.

Q: Which “hERG current change (%, negative = inhibition) at 1uM” value does the source give for COc1ccc(N2CCN(C(=O)C3CCCO3)CC2)cc1 (stereo not shown) here?
A: The value was 7.68%.

Q: How did the “hERG current change (%, negative = inhibition) at 1uM” value turn out when CCCC(NC(=O)c1ccco1)c1nc2ccccc2[nH]1 (stereo not shown) was run?
A: The value was 1.97%.

Q: CC1CN(C(=O)CCC(=O)NC(C)c2ccccc2)c2cc(Cl)ccc2O1 (stereo not shown) was tested. Which “hERG current change (%, negative = inhibition) at 1uM” value did it give?
A: The value was 6.45%.

Q: How did the “hERG current change (%, negative = inhibition) at 1uM” value turn out when CCOc1ccc(-n2c(SCC(=O)N3CCc4ccccc43)nnc2-c2c[nH]c3ccccc23)cc1 was run?
A: Its value is 19.1%.

Q: Which “hERG current change (%, negative = inhibition) at 1uM” value does the source give for COc1cc2cc(C(=O)N3CCN(c4ccccc4OC)CC3)[nH]c2cc1OC here?
A: The value was 17.2%.
